Here are results for 94 sequences from PMC5836133.

The list shows a part of the results. At the low end of the ranking, values are background and their order means little.

The assay concerns T1, GST-NbGlk1(82-244).
T1 sequence: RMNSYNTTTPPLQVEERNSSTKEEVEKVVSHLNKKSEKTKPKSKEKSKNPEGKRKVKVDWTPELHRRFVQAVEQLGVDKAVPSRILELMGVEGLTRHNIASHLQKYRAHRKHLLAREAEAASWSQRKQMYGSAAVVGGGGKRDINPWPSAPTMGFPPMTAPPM
The experiment in a line: protein-binding microarray.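 Note: rank-based score ranging −0.5 to +0.5 with E above 0.45 taken as significant binding.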 The note with it: NbGlk1 is a Golden2-like transcription factor of Nicotiana benthamiana; high values mean tight binding; most listed sequences are background and not binding sites; double strand, one strand shown.
Turning to CAATACTC, the binding signal turned out to be 0.0245 E-score. Sequence AGATAGCC came in with a binding signal of -0.0206 E-score. The value for ATCTTCCA was 0.319 E-score. ACTGGAAC displayed a binding signal of -0.119 E-score. On to ACTAACAG, for which the binding signal was determined as 0.0406 E-score.

ACTTAACG showed a binding signal of 0.049 E-score. AAACTTCG: the binding signal was -0.0377 E-score. With CACAAATG, the binding signal was -0.0975 E-score. AGAAGTCA showed a binding signal of -0.197 E-score.

The sequence ATGGTCTA showed a binding signal of -0.229 E-score. As to CAACATTG, the binding signal turned out to be 0.0251 E-score. ACTGTTAC showed a binding signal of 0.0719 E-score. The value for AAGGAAGC was -0.0753 E-score; that for ATAGCGAC was 0.0028 E-score. Turning to AGTAGGGG, the binding signal is -0.124 E-score. In the case of AAGGTGAA, the binding signal is -0.0576 E-score. With AGACTAAT the figure was -0.0968 E-score. Take AAGATCGC: the binding signal stood at 0.398 E-score. As to AGGCGCGA, the binding signal is 0.0558 E-score.

With ATTGGACG, the binding signal is -0.111 E-score.

Turning to AACCGCGC, the binding signal amounted to 0.0954 E-score. The value for ATCCCCAG was 0.193 E-score. The value for AATTCGCT was 0.142 E-score; that for AGAACACA was -0.133 E-score; that for ACCGGAGC was -0.185 E-score. Take ACTTTATA: the binding signal came out at 0.0901 E-score. On to AAAAGTTC, for which the binding signal was -0.1 E-score. ACTCTCCC displayed a binding signal of -0.196 E-score. In turn, AACTAATT displayed a binding signal of 0.117 E-score. The value for ACCCAGTA was -0.111 E-score; that for CAGCGTGA was -0.111 E-score. Consider ACAGCACT, for which the binding signal is -0.0686 E-score. For CAAGCGCA, the binding signal was -0.0624 E-score.

In turn, ATTATTGG returned a binding signal of 0.111 E-score. Sequence AAGACCTT came in with a binding signal of -0.167 E-score. ATCGTCGC displayed a binding signal of 0.147 E-score. In the case of ATCAGAGG, the binding signal was -0.0212 E-score. Regarding AGCCGCAA, the binding signal was -0.0939 E-score. The value for AGTCGTTG was -0.13 E-score. With AATCACCT the figure was 0.176 E-score; with AGTTAAGG, -0.171 E-score; with AATGTTCA, -0.0383 E-score. For CAAGACAA, the binding signal was -0.0408 E-score.

The sequence CACAGGTG yielded a binding signal of -0.304 E-score.

In turn, ACTCCAAG gave a binding signal of -0.148 E-score.

AACAAACT: the binding signal was -0.0988 E-score. In the case of AAACGATA, the binding signal was determined as 0.137 E-score. In turn, AAAAGTGG came in with a binding signal of 0.0621 E-score.

CACCACTA displayed a binding signal of -0.0816 E-score. ACGAGTGA: the binding signal was determined as 0.0649 E-score. AGATAGCG returned a binding signal of 0.251 E-score.

The sequence AGTCCCTC yielded a binding signal of -0.217 E-score. Sequence AACCCAGC had a binding signal of -0.225 E-score. Regarding ATCAGCTC, the binding signal is -0.00425 E-score. For AAAGCTTG, the binding signal stood at 0.0567 E-score. AATTCAGG displayed a binding signal of 0.109 E-score.

Regarding CAAGGGTC, the binding signal is -0.165 E-score. AGCTTATG gave a binding signal of -0.167 E-score. For AGTGAGGC, the binding signal was -0.187 E-score. In turn, AGCTTACG displayed a binding signal of -0.193 E-score. CAATACCC: the binding signal is -0.0229 E-score.

As for ACGCTAAA, the binding signal turned out to be 0.0618 E-score.

AGATCCTG had a binding signal of 0.369 E-score. In turn, AAGACAGA had a binding signal of 0.0232 E-score.

For ACTCCTAT, the binding signal is -0.0522 E-score. Regarding CAATCGTG, the binding signal is 0.208 E-score. Consider ACCGACGC, for which the binding signal was -0.233 E-score. Consider ATAGACGG, for which the binding signal is -0.0538 E-score. In turn, CAGAAACG yielded a binding signal of -0.057 E-score. AAACTGCC gave a binding signal of -0.157 E-score. The value for AACGCGCG was 0.0157 E-score; that for ACCAAGCA was -0.00329 E-score. Regarding AAGTCCCT, the binding signal was -0.212 E-score.

Consider AAAAACAC, for which the binding signal was -0.0464 E-score. Turning to AAAGCTAC, the binding signal was -0.175 E-score. The sequence ATACGAGG showed a binding signal of -0.0346 E-score. With ACGTTGCT the figure was -0.0958 E-score; with AGCGCTGC, -0.15 E-score; with AAGCCTTG, -0.226 E-score.

For ATATTGTC, the binding signal came out at 0.261 E-score. In turn, ACCAACCA registered a binding signal of -0.177 E-score. With ATGGAAAT the figure was 0.335 E-score; with CACAAGAA, -0.000272 E-score. The value for AATGAATC was 0.262 E-score; that for AGTGGTAT was 0.109 E-score; that for AGGGGCAC was -0.239 E-score. On to AGTGATCA, for which the binding signal was -0.0302 E-score. Consider AGGAAGTC, for which the binding signal was -0.315 E-score. For AAGCGTCG, the binding signal was -0.121 E-score. With ACGATTGG the figure was 0.0657 E-score; with ATTGATCA, -0.0208 E-score. In the case of ACCCTCCC, the binding signal was -0.167 E-score. Consider AGAGTACG, for which the binding signal was -0.15 E-score. In turn, AGCAAGAG returned a binding signal of -0.078 E-score.
